Values joined by “and” are separate entries in the source; they are usually repeats but may differ in a detail not shown here. Identical values can stand only once. About 5,800 (2.1%) of roughly 270,000 compounds were called active. The shares of active, inactive and inconclusive entries below differ from those in the screen. Calls follow the shape of the dose curve; as a rule, active = well fitted inhibition curve with a large enough effect; inconclusive = small, poorly fitted or top-dose-only effect; inactive = flat fitted curve, though single readings scatter. Potencies of inconclusive entries are doubtful fits and often do not repeat.
biological target: Microtubule-associated protein tau (Homo sapiens) (UniProt P10636); assay: qHTS for Inhibitors of Tau Fibril Formation, Thioflavin T Binding; settings: recombinant tau K18 P301L, heparin-induced fibrillization, ThT fluorescence; series mostly up to 57.4 µM; also: nearly all actives have a fitted effect of over 55% in size
How it was run: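 Using a mix of unlabeled (15 uM) and Alexa 594-labeled (0.24 uM) tau K18 P301L, heparin-triggered fibrillization over 6 hr at 37 C was scored by ThT fluorescence.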
Potency is read from the fitted curve at half-maximal effect; tags tell the direction and shape of the fitted curve.

Chain of UniProt P10636 (P10636 whole entry, looked up): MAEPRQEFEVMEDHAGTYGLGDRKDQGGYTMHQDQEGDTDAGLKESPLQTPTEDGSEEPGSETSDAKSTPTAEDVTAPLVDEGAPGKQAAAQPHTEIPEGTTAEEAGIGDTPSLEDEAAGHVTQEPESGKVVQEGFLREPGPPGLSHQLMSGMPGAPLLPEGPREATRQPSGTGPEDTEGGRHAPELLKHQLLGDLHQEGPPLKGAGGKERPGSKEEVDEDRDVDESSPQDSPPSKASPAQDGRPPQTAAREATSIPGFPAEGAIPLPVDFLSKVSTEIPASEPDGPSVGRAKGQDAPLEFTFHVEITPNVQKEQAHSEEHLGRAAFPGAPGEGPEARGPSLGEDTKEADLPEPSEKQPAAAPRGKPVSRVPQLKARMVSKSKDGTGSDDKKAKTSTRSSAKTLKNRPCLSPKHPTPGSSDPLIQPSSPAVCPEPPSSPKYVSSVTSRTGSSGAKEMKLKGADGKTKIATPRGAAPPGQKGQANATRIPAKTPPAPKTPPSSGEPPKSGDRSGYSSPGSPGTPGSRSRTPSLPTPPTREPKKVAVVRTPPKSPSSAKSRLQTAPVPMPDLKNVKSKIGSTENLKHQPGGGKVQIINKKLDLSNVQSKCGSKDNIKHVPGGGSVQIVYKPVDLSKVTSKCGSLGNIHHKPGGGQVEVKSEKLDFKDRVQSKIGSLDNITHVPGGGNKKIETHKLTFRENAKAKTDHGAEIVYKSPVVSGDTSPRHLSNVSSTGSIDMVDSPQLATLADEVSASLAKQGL

Which Potency does the source give for COc1ccc(CCCc2nnc(SCC(=O)Nc3cccc(C)c3)o2)cc1 here?
Its Potency is inconclusive: 14.1 µM [inhibitor, partial curve].

With O=C1CS/C(=N/N=C2CCCC2)N1 as the compound, how does the Potency read?
The Potency was “inactive”.

COc1ccc(/C=C2\N=C(SC)N(c3ccccc3OC)C2=O)cc1 was tested. Which Potency did it give?
Its Potency is inconclusive: 28.2 µM [inhibitor, single point].

How did the Potency turn out when Cc1ccc(CN=c2c([N+](=O)[O-])nn(-c3cccc(Cl)c3)n2O)cc1 was run?
The Potency was inconclusive: 28.2 µM [inhibitor, partial curve].

N#CC1=C2SCN(C3CCCCC3)CN2C(=O)CC1c1c(F)cccc1Cl (centres undefined) was tested. Which Potency did it give?
The Potency was active: 31.6 µM.

How did the Potency turn out when Cc1ccc(CNC(=O)CSc2n[nH]c(N)n2)cc1 was run?
The Potency was “inactive”.

For CCOC(=O)c1sc2ncn(/N=C/c3ccccn3)c(=O)c2c1C, which Potency is on record?
Its Potency is inconclusive: 1.78 µM [inhibitor, full curve].

Which Potency does the source give for CSc1nc2cc(C)nn2c(-c2ccccc2)c1C#N here?
The Potency was “inactive”.

How did the Potency turn out when CCc1ccc(Sc2cc(C(=O)O)c3ccccc3n2)cc1 was run?
The Potency was “inactive”.

How did the Potency turn out when COc1ccc(Cn2c(CO)cnc2SCc2ccc(F)cc2)cc1 was run?
Its Potency is “inactive”.

C=CCOC(=O)C(C#N)c1nc2ccccc2nc1N1CCN(Cc2ccc3c(c2)OCO3)CC1 (centres undefined) was tested. Which Potency did it give?
The Potency was inconclusive: 12.6 µM [inhibitor, partial curve].

For Cc1ccc(C2=Nc3c(ccc4ccccc34)C(c3ccncc3)=NN2)cc1, which Potency is on record?
The Potency was inconclusive: 28.2 µM [inhibitor, single point].

Which Potency does the source give for CCC(=O)Nc1cccc(-c2nc3ccccc3c(=O)o2)c1 here?
Its Potency is “inactive”.

For CCCCc1c(O)nc2sc3cc(OC)ccc3n2c1=O, which Potency is on record?
The Potency was “inactive”.

How did the Potency turn out when CC(=O)c1c(Nc2ccc3c(c2)OCCO3)oc(C)cc1=O was run?
Its Potency is inconclusive: 31.6 µM [inhibitor, single point].

With O=C1N=C(N2CCN(c3ccccc3)CC2)S/C1=C\c1ccco1 as the compound, how does the Potency read?
The Potency was active: 14.1 µM.

With Cc1occc1C(=O)NNC(=O)COc1ccc(Br)cc1Br as the compound, how does the Potency read?
The Potency was “inactive”.

Nc1cc(=O)[nH]c(SCC(=O)Nc2nc3ccc([N+](=O)[O-])cc3s2)n1 was tested. Which Potency did it give?
The Potency was inconclusive: 14.1 µM [inhibitor, partial curve].

Which Potency does the source give for C=CCn1c(SCC(=O)CC(=O)OCC)nc2cc(C(=O)N3CCC(C(N)=O)CC3)ccc2c1=O here?
The Potency was inconclusive: 25.1 µM [inhibitor, single point].

CCc1ccc2c(c1)/C(=C/C(=O)c1cccs1)C(=O)N2 was tested. Which Potency did it give?
The Potency was inconclusive: 28.2 µM [inhibitor, partial curve].

How did the Potency turn out when Cc1ccc(NC(=S)N/N=C/c2ccc(Cl)c([N+](=O)[O-])c2)cc1 was run?
The Potency was “inactive”.

How did the Potency turn out when COc1cc(OC)c2c(-c3cccc(-c4sccc4C(C)=O)c3)cc(=O)oc2c1 was run?
Its Potency is inconclusive: 31.6 µM [inhibitor, partial curve].

For CCCN1CCN(c2cc3c(cc2F)c(=O)c(S(=O)(=O)c2ccc(CC)cc2)cn3CC)CC1, which Potency is on record?
Its Potency is “inactive”.

How did the Potency turn out when CCOC(=O)C1(Cc2cccc(Cl)c2)CCCN(C(=O)C2CC2)C1 (centres undefined) was run?
The Potency was “inactive”.

How did the Potency turn out when Cc1ccc(CNc2ccc(N3CCOCC3)cc2)s1 was run?
The Potency was inconclusive: 5.62 µM [inhibitor, partial curve].

Which Potency does the source give for O=C(NNc1cc(Cl)ccc1Cl)c1cccs1 here?
Its Potency is “inactive”.

How did the Potency turn out when Cc1[nH]nc(N)c1-c1ccc(Cl)cc1 was run?
Its Potency is “inactive”.

How did the Potency turn out when CCOc1ccc(NC(=O)c2c(Nc3ccccc3C)sc(C(=O)c3ccc(Cl)cc3)c2N)cc1 was run?
Its Potency is inconclusive: 31.6 µM [inhibitor, single point].

COc1ccccc1-n1c(=S)[nH]c2c(sc(=S)n2-c2ccc(C)cc2C)c1=O was tested. Which Potency did it give?
The Potency was inconclusive: 11.2 µM [inhibitor, partial curve].

Which Potency does the source give for CCn1c2ccc(Cl)cc2c2nc3ccccc3nc21 here?
The Potency was active: 15.8 µM.

Which Potency does the source give for O=C(c1ccc(F)cc1)N1CCCCC(Sc2nnnn2-c2ccccc2)C1=O (centres undefined) here?
The Potency was “inactive”.

With Cc1ccc(N2CC(NC(=O)CCc3ccccc3)CC2=O)cc1C (centres undefined) as the compound, how does the Potency read?
Its Potency is “inactive”.

Which Potency does the source give for CCN1CCN(c2nc3ccccc3nc2C(C#N)C(=O)OC2CCCCC2)CC1 (centres undefined) here?
The Potency was inconclusive: 28.2 µM [inhibitor, single point].

With Cc1cccc(N(Cc2cc3ccccc3[nH]c2=O)C(=O)c2cccc(Cl)c2)c1 as the compound, how does the Potency read?
The Potency was “inactive”.

For Cc1cccc(CCNC(=O)c2ccc(CSCc3cccc(Cl)c3)o2)c1, which Potency is on record?
Its Potency is inconclusive: 12.6 µM [inhibitor, partial curve].

With Cc1ccc(-c2cc(-c3c(C)nn(C)c(=O)c3N)[nH]n2)cc1 as the compound, how does the Potency read?
The Potency was inconclusive: 0.1 µM [inhibitor, full curve, poor fit].

Which Potency does the source give for Clc1ccc(CN2CCN(/N=C/c3cccnc3)CC2)cc1 here?
Its Potency is “inactive”.

With O=P(O)(CCc1ccncc1)CN1CCCCC1 as the compound, how does the Potency read?
The Potency was “inactive”.

Which Potency does the source give for Cc1ccc(C2CCN(C(=S)Nc3cccc(C)c3)C2)cc1 (centres undefined) here?
The Potency was “inactive”.

How did the Potency turn out when Cc1nc(N2CCN(C)CC2)c2c(C)c(C(=O)Nc3ccc(C)c(F)c3)sc2n1 was run?
Its Potency is inconclusive: 39.8 µM [activator, single point].

How did the Potency turn out when O=C1N/C(=N/Nc2ccccc2)S/C1=C\c1ccccc1 was run?
The Potency was inconclusive: 6.31 µM [inhibitor, single point].

How did the Potency turn out when COc1ccccc1N1CCN(C(=S)NC(=O)/C=C/c2ccc(F)cc2)CC1 was run?
The Potency was inconclusive: 28.2 µM [inhibitor, partial curve].

Which Potency does the source give for COc1ccc(/C=N/NC(=O)c2cc(C)on2)c2ccccc12 here?
The Potency was inconclusive: 3.55 µM [inhibitor, full curve].

COc1ccc2nc(N=Nc3c(O)ccc4ccccc34)sc2c1 was tested. Which Potency did it give?
The Potency was active: 2.82 µM.

How did the Potency turn out when COc1ccc2oc(-c3ccc(C)c(NC(=O)c4ccc(-c5ccccc5[N+](=O)[O-])o4)c3)nc2c1 was run?
The Potency was inconclusive: 3.55 µM [inhibitor, full curve, poor fit].

How did the Potency turn out when Cc1cc(-c2ccccc2)nc(-c2ccccc2)c1C was run?
The Potency was active: 3.16 µM.

With Cc1ccc(C(=O)c2cc3ccccc3o2)cc1C as the compound, how does the Potency read?
The Potency was inconclusive: 25.1 µM [inhibitor, partial curve].

With CCOCCCNc1nc2ccccc2n2c(CC)nnc12 as the compound, how does the Potency read?
The Potency was inconclusive: 39.8 µM [inhibitor, single point].

Which Potency does the source give for COc1ccc(-c2noc(N3CCC(C(=O)N4CCN(c5ccccc5F)CC4)CC3)n2)cc1 here?
The Potency was inconclusive: 5.01 µM [inhibitor, partial curve].

CN(CCCNC(=O)c1ccc(N2CCCC2=O)cc1)c1ccccc1 was tested. Which Potency did it give?
The Potency was inconclusive: 31.6 µM [inhibitor, single point].

O=C(Nc1ccc2c(c1)OCO2)c1cc(-c2ccncc2)nc2ccccc12 was tested. Which Potency did it give?
Its Potency is inconclusive: 31.6 µM [inhibitor, single point].

For Cc1cc(=O)c2c(O)c(O)ccc2o1, which Potency is on record?
Its Potency is inconclusive: 7.08 µM [inhibitor, partial curve].

For CCOC(=O)c1nnn(-c2nonc2N)c1CSc1ccc(C)cc1, which Potency is on record?
Its Potency is “inactive”.

c1ccc(-n2nnnc2Sc2ncnc3sc4c(c23)CCCC4)cc1 was tested. Which Potency did it give?
The Potency was inconclusive: 31.6 µM [inhibitor, single point].

With COc1ccc2c(c1O)C(=O)c1ccccc1C2=O as the compound, how does the Potency read?
The Potency was inconclusive: 15.8 µM [inhibitor, single point].

How did the Potency turn out when CC(C)c1ccc(CNc2nc(-c3ccco3)nn2C(=O)c2ccc([N+](=O)[O-])cc2)cc1 was run?
The Potency was inconclusive: 8.91 µM [inhibitor, partial curve].

COc1ccc(/C=C/C(=O)NCCSCc2ccco2)cc1 was tested. Which Potency did it give?
Its Potency is inconclusive: 22.4 µM [inhibitor, single point].

For COc1cc(OC)cc(-c2cc3nc(C)c(CCC(=O)Nc4ccc(C(C)=O)cc4)c(C)n3n2)c1, which Potency is on record?
Its Potency is inconclusive: 5.62 µM [inhibitor, full curve, poor fit].

How did the Potency turn out when COc1ccc(-c2csc(NC(=O)c3ccccc3NS(=O)(=O)c3ccc(C)cc3)n2)cc1 was run?
Its Potency is inconclusive: 14.1 µM [inhibitor, partial curve].

For O=C1C=CC(=O)N1CCNc1ncc(C(F)(F)F)cc1Cl, which Potency is on record?
The Potency was “inactive”.

Which Potency does the source give for O=C(c1ccc(Cl)cc1)N1CCN(C(=O)c2ccco2)CC1 here?
The Potency was “inactive”.

How did the Potency turn out when Cc1cccc(NC(=O)CCN2CCN(c3ccccc3F)CC2)c1 was run?
Its Potency is “inactive”.

Which Potency does the source give for CCOC(=O)c1c(S(=O)(=O)NCC(=O)N2CCN(c3cc(C)ccc3C)CC2)c(C)n(C)c1C here?
Its Potency is inconclusive: 44.7 µM [inhibitor, single point].

CC1CCCN(C(=O)c2ccncc2)C1 (centres undefined) was tested. Which Potency did it give?
The Potency was “inactive”.

CC(=O)CSc1ncnc2sc3c(c12)CCC(C)C3 (centres undefined) was tested. Which Potency did it give?
Its Potency is “inactive”.

With COc1ccc(NC2=CC(=O)CC(c3ccccc3)C2)c(OC)c1 (centres undefined) as the compound, how does the Potency read?
The Potency was “inactive”.

How did the Potency turn out when COc1ccc(-c2csc(Nc3ccc(S(=O)(=O)Nc4cc(OC)nc(OC)n4)cc3)n2)cc1 was run?
Its Potency is active: 15.8 µM.

Which Potency does the source give for COC(=O)c1ccccc1NC(=O)Cn1c(=O)n(CCC(=O)NCc2ccccc2OC)c(=O)c2ccccc21 here?
The Potency was “inactive”.

With COc1c(O)cc2oc3cc(O)c(CC=C(C)C)c(O)c3c(=O)c2c1CC=C(C)C as the compound, how does the Potency read?
The Potency was inconclusive: 11.2 µM [inhibitor, partial curve, poor fit] and inconclusive: 28.2 µM [inhibitor, single point] and inconclusive: 22.4 µM [inhibitor, single point].

Which Potency does the source give for O=C(Nc1ccc(Cl)c(Cl)c1)OCCNC(=O)c1cccc(Cl)c1 here?
The Potency was inconclusive: 1.78 µM [inhibitor, full curve].

With COc1ccc(-c2cn3nc(N4CCCC(C(=O)Nc5ccccc5OC)C4)sc3n2)cc1 (centres undefined) as the compound, how does the Potency read?
The Potency was inconclusive: 3.16 µM [inhibitor, partial curve].

With c1csc(-c2csc3nc(CN4CCOCC4)nc(NCc4ccc5c(c4)OCO5)c23)c1 as the compound, how does the Potency read?
Its Potency is inconclusive: 22.4 µM [inhibitor, single point].

CCOC(=O)c1cnc(SC)nc1Sc1ccccc1Cl was tested. Which Potency did it give?
Its Potency is inconclusive: 31.6 µM [inhibitor, partial curve].

Which Potency does the source give for O=C(O)c1ccccc1N/N=C/C1=C(N2CCOCC2)C(=C\c2ccccc2)/CC1 here?
Its Potency is active: 10 µM.
